Reference: PubChem BioAssay (NCATS)
Inconclusive means that the source gave no clear call. Such entries were picked first, then a sample of the others. For part of these data: No potency is given beside an inconclusive call; the fits are too rough. Activity calls are given as the source filed them. Unless noted, the call rests on the fitted dose curve; in most records, active means well fitted curve in the direction sought with a large enough effect; inconclusive means small, poorly fitted or top-dose-only effect, or another doubt; inactive means no such curve, though single readings can be large; an effect the other way counts as inactive or inconclusive.

Assays:
[1] = target: Calcium and integrin-binding protein 1 (Homo sapiens) (UniProt Q99828); test: Primary qHTS for Identification of Calcium Integrin Binding Protein 1 (CIB1) Competitor (AID 1508620); further: potency means the concentration at half of the fitted maximal effect;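 on activity change, negative = inhibition: GST tagged CIB1 binding a fluorescein labelled alphaIIb integrin peptide tracer; top concentration of the series differs between compounds; on the % scale 0 is the no-effect control and ±100 the full control effect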
Sequence of UniProt Q99828 (Q99828 whole entry, looked up): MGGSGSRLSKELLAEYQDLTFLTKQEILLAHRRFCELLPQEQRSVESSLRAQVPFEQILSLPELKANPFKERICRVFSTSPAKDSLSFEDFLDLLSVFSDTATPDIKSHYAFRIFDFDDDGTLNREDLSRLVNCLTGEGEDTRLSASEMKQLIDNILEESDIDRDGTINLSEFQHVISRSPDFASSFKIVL
Summary of the method: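 CIB1-GST (1 uM final) and compound incubated 15 min at room temperature before adding FITC-alphaIIb peptide tracer (100 nM final). Competition for binding read by fluorescence polarization (ex 480, em 540) after another 15 min at room temperature.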

[2] = target: Endonuclease 4 (Escherichia coli (strain K12)) (UniProt P0A6C1); test: Counterscreen for APE1 Inhibitors: qHTS Assay for Inhibitors of Endonuclease IV (AID 2565); further: potency means the concentration at half of the fitted maximal effect
Summary of the method: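 qHTS concentration-response format; LOPAC1280 tested under APE1-screen conditions. 2 nM enzyme, 15 min compound preincubation at RT, then 50 nM TAMRA/BHQ-2 abasic substrate; kinetic fluorescence read, three reads at 60 s intervals.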

[3] = target: DNA repair nuclease/redox regulator APEX1 (Homo sapiens) (UniProt P27695); test: qHTS FP-Based Assay for Inhibitors of the Human Apurinic/apyrimidinic Endonuclease 1 (APE1) (AID 2573); further: potency means the concentration at half of the fitted maximal effect
Sequence of UniProt P27695 (P27695 whole entry, looked up, the tested form may be a part): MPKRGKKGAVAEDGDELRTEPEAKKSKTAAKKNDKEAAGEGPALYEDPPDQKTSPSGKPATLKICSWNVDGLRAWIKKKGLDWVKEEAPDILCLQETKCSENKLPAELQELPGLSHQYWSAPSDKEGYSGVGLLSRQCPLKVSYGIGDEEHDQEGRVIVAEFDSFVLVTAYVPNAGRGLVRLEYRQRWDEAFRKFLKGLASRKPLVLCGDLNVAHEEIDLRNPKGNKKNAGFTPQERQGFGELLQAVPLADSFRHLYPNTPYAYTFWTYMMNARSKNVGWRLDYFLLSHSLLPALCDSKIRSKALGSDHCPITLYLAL

[4] = Primary qHTS for inhibitors of nuclear receptor binding SET domain protein 2 (NSD2) in an isogenic RCH-ACV NSD2 p.E1099K mutant (9B) (AID 1645876); further: on the % scale 0 is the no-effect control and ±100 the full control effect; nearly all actives have a fitted effect of over 70% in size
[5] = Primary qHTS for inhibitors of nuclear receptor binding SET domain protein 2 (NSD2) in an RCH-ACV wild type WT cells (2C) (AID 1645877); further: on the % scale 0 is the no-effect control and ±100 the full control effect; nearly all actives have a fitted effect of over 70% in size
[6] = target: DNA polymerase iota (Homo sapiens) (UniProt Q9UNA4); test: qHTS for Inhibitors of Polymerase Iota: Confirmatory Assay for Cherry-picked Compounds (AID 720496); settings: Pol iota primer extension, TAMRA/BHQ fluorescence; further: potency means the concentration at half of the fitted maximal effect
Sequence of UniProt Q9UNA4 (Q9UNA4 whole entry, looked up): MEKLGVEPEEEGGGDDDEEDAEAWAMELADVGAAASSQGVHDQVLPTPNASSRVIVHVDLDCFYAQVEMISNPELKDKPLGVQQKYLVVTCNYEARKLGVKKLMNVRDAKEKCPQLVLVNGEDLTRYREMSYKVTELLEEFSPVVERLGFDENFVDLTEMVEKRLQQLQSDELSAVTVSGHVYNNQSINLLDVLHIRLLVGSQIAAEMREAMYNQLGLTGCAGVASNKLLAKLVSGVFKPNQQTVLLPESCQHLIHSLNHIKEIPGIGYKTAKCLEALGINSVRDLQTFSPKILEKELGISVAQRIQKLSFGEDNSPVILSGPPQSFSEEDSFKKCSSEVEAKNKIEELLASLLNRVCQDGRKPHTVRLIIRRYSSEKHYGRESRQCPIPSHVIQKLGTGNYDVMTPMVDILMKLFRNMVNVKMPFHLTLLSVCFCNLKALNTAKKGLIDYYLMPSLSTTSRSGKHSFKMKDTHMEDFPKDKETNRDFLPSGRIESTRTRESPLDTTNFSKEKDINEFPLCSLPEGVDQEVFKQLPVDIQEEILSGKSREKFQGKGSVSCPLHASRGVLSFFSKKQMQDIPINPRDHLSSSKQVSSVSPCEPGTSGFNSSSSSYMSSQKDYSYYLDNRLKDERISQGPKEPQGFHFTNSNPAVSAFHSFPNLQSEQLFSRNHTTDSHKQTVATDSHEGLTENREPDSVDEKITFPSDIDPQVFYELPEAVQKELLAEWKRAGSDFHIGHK
Summary of the method: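 Read-out is TAMRA fluorescence (525 nm excitation, 598 nm emission) at 0 and 10 min. It reflects strand displacement from a BHQ-2-quenched template by 10 nM Pol iota, with 50 nM final substrate after 15 min compound preincubation.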

[7] = qHTS for Inhibitors of Ubiquitin-specific Protease USP2a Using CHOP2 as the Reporter: K633 Counterscreen (AID 652168); further: % of control where 0% means no effect
Summary of the method: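 Cell-free interference counterscreen without USP2a: compounds pinned into enzyme-free buffer (20 mM Tris pH 8, 2 mM beta-mercaptoethanol, 0.05% Chaps), then DiUb K48-4IQF substrate added (100 nM stock); fluorescence read kinetically, Ex 525/Em 598.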

[8] = target: 3',5'-cyclic-AMP phosphodiesterase 4B (Homo sapiens) (UniProt Q07343); test: qHTS Assay for Inhibitors of PDE-IV (AID 607; active means well fitted activation curve with a large enough effect in the main read-out, with a control signal flat, not every such curve was filed as active; inconclusive means small, poorly fitted or top-dose-only effect, or effect the other way, or a change in a side signal; further: potency means the concentration at half of the fitted maximal effect); settings: HEK293 ACTOne CNG channel cells, membrane potential fluorescence; activation (PDE inhibition): at 22.9 µM (top of the series)
Sequence of UniProt Q07343 (Q07343 whole entry, looked up): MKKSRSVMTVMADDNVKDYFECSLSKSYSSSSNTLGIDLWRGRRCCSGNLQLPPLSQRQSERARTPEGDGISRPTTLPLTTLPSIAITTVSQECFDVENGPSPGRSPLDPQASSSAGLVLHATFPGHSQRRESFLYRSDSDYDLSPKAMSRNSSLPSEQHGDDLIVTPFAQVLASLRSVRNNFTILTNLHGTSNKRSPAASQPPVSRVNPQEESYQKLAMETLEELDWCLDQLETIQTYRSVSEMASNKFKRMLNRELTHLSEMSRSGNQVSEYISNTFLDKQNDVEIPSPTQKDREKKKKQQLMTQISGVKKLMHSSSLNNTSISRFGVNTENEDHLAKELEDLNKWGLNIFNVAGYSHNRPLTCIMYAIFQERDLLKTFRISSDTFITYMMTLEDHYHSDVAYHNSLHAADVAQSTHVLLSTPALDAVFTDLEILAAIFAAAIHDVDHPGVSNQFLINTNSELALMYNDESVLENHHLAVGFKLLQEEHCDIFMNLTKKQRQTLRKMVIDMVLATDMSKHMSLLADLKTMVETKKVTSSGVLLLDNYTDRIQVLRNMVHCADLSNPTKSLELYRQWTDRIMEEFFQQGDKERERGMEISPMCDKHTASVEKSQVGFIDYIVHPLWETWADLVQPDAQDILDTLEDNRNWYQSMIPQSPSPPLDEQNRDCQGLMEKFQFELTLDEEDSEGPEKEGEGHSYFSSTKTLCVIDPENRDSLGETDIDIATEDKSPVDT
Summary of the method: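 Live HEK293 cells with a modified cyclic nucleotide-gated (CNG) channel report intracellular cAMP via membrane-potential dye fluorescence (ex 535/em 590 nm). Endogenous PDE-IV was targeted. Compounds were tested at up to 22.9 uM final; RO 20-1724 100 uM served as control.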

[9] = qHTS Assay for Identification of Small Molecule Agonists for Hypoxia Response Element Signaling Pathway (AID 914; active means well fitted activation curve with a large enough effect in the signal ratio, with a control signal flat, not every such curve was filed as active; inconclusive means small, poorly fitted or top-dose-only effect, or effect the other way, or a change in a side signal; the % refers to the signal ratio; further: potency means the concentration at half of the fitted maximal effect); settings: ME-180 HRE-bla reporter, beta-lactamase ratio, CoCl2, 17 h; activation: hits give high values
Summary of the method: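 AC50 values come from titration-series %Activity, taken as the 460/530nm ratio of CCF4 fluorescence (excitation 405nm). CellSensor HRE-bla ME-180 cells were treated 17 hours at 37 C with compound plus an EC50 level of CoCl2.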

[10] = qHTS Assay for Lipid Storage Modulators (AID 1519; calls by dose curve; further: on the % scale 0 is the no-effect control and ±100 the full control effect); settings: Drosophila S3 cells, BODIPY lipid droplet/cell ratio, laser cytometry, cells loaded with oleic acid; activity change, negative = inhibition: at 57.5 µM (top of the series) unless noted
Summary of the method: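 Cells seeded at 5,000 per well were treated with compounds over a concentration series and loaded with oleic acid (400 uM, as added). Lipid droplet fluorescence (488 nm excitation, 500-530 nm channel) was read by laser-scanning cytometry and normalized to 20 uM Triacsin C.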

[11] = Counterscreen qHTS for small molecule stabilizers of the endoplasmic reticulum resident proteome: GLuc-NoTag assay (AID 1508627); settings: Gaussia luciferase NoTag secretion counterscreen, luminescence, thapsigargin 100 nM for final 4 h; activity change, negative = inhibition: at 76.4 µM (top of the series); further: potency means the concentration at half of the fitted maximal effect;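 on activity change, negative = inhibition: SH-SY5Y cells given compound then 100 nM thapsigargin to empty ER calcium; 0% = thapsigargin alone and -100% = DMSO vehicle control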
Summary of the method: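 Luminescence of Gaussia luciferase secreted into the medium (coelenterazine, 0.07x final, unlysed cells) was the read-out. Human SH-SY5Y neuroblastoma cells constitutively secreting untagged GLuc received compound for 19 h, then 100 nM thapsigargin for 4 h.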

[12] = Confirmatory qHTS for small molecule stabilizers of the endoplasmic reticulum resident proteome: Secreted ER Calcium Modulated Protein (SERCaMP) assay (AID 1508628); further: potency means the concentration at half of the fitted maximal effect; nearly all actives have a fitted effect of over 40% in size
Summary of the method: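 SH-SY5Y cells stably expressing GLuc-SERCaMP, treated 16 h with compound (primary 1.53, 7.67, 38.3 uM; confirmation 11 concentrations, up to 76.6 uM), then 100 nM thapsigargin for 4 h. Secreted Gaussia luciferase in medium read by coelenterazine luminescence.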

[13] = Cell Viability qHTS for small molecule stabilizers of the endoplasmic reticulum resident proteome (AID 1508629); settings: cell viability counter-screen, 100 nM thapsigargin for final 4 h;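 further: compound exposure about 46 h in total before the viability read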; further: potency means the concentration at half of the fitted maximal effect
[14] = Primary qHTS for small molecule stabilizers of the endoplasmic reticulum resident proteome: Secreted ER Calcium Modulated Protein (SERCaMP) assay (AID 1508630); settings: SH-SY5Y GLuc-SERCaMP (Gaussia luciferase released on ER calcium loss) secretion, thapsigargin, luminescence; activity change, negative = inhibition: at 38.4 µM (top of the series) unless noted; further: potency means the concentration at half of the fitted maximal effect
Summary of the method: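 GLuc-SERCaMP-expressing SH-SY5Y cells, pretreated 16 h with compound, are challenged with thapsigargin to empty ER calcium stores; after 4 h, coelenterazine is added directly to the medium and luminescence is imaged.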

[15] = AP1 Signaling Pathway (AID 357; active means well fitted curve in either direction with a large enough effect, not every such curve was filed as active; inconclusive means small, poorly fitted or top-dose-only effect, or another doubt;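 further: ME-180 reporter cells stimulated with EGF at its EC50 level; top concentration of the series differs between compounds; on the % scale 0 is the no-effect control and ±100 the full control effect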); settings: ME-180 (cervical carcinoma) AP-1-bla reporter, EGF-induced, beta-lactamase ratio, 5 h; at 7.69 µM (top of the series) unless noted
Summary of the method: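 AP-1-bla ME-180 cells, Opti-MEM + 0.5% dialyzed FBS, plated overnight 37 °C. Cpd titration + EC50 EGF, 5 h 37 °C. CCF4 2.5 h RT; ex 405, em 460/530 ratio → %activity, AC50.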

[16] = NFAT Signaling Pathway (AID 444; active means well fitted curve in either direction with a large enough effect, not every such curve was filed as active; inconclusive means small, poorly fitted or top-dose-only effect, or another doubt;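 further: carbachol stimulus at about its EC50 of 1 µM final; on the % scale 0 is the no-effect control and ±100 the full control effect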); settings: Jurkat NFAT-bla M1, carbachol, beta-lactamase ratio, 5 h; at 7.69 µM (top of the series) unless noted
Summary of the method: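 Read-out: CCF4 FRET ratio (460 nm/530 nm) after 1 h RT dye loading, used for %activity and AC50 from titration series. Cells: Jurkat NFAT-β-lactamase/M1 line, treated with compound plus 1 uM carbachol for 5 h, 37 °C.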
Tags describe the fitted curve by direction and shape or compound fluorescence and quenching.

For `OCc1ccc(-c2ccc3ncnc(NCCc4cnc[nH]4)c3c2)o1`, which Potency [1] is on record?
The Potency was inconclusive [inhibitor, partial curve, poor fit].

For `Nc1ccc(-c2ccc(NC(=O)c3cccs3)cn2)cc1`, which Potency [1] is on record?
The Potency was “inactive”.

Which Potency [1] does the source give for `CCc1ccc(S(=O)(=O)Nc2cnccc2C(=O)Nc2nc(-c3ccccc3)cs2)cc1` here?
Its Potency is inconclusive [inhibitor, partial curve].

For `O=C(NC(c1ccco1)c1cc(Cl)c2cccnc2c1O)c1cccs1` (stereo not given), which Potency [1] is on record?
Its Potency is inconclusive [inhibitor, full curve].

For `COc1ccc(C2c3c(N)nc(CCCc4ccccc4)nc3Oc3ccc4ccccc4c32)cc1OC` (stereo not given), which Potency [1] is on record?
Its Potency is “inactive”.

Which Potency [1] does the source give for `CS(=O)(=O)c1ccccc1-c1csc(N2CCC(C(N)=O)CC2)n1` here?
The Potency was “inactive”.

With `CC(=O)NC(c1ccco1)c1cc(F)c2cccnc2c1O` (stereo not given) as the compound, how does the Potency [1] read?
Its Potency is inconclusive [inhibitor, partial curve, poor fit].

With `COc1ccc(C2=Nn3c(nnc3-c3cc(OC)ccc3OC)SC2)c(OC)c1` as the compound, how does the Potency [1] read?
The Potency was “inactive”.

For `c1ccc(-n2cc(-c3nnc4n3CCCCC4)cn2)cc1`, which Potency [1] is on record?
The Potency was inconclusive [inhibitor, partial curve, poor fit].

With `c1nc(NCCc2cnc[nH]2)c2ccc(-c3ccc4c(c3)OCO4)cc2n1` as the compound, how does the Potency [1] read?
The Potency was inconclusive [inhibitor, partial curve, poor fit].

For `Cc1cc(C)nc(NC(=S)N2CCN(c3cc4ccccc4cn3)CC2)c1`, which Potency [1] is on record?
The Potency was inconclusive [inhibitor, partial curve, poor fit].

With `Cc1ccc(S(=O)(=O)Nc2cnccc2C(=O)Nc2nc(-c3cccc(Cl)c3)cs2)cc1` as the compound, how does the Potency [1] read?
Its Potency is inconclusive [inhibitor, full curve, poor fit].

Which Potency [1] does the source give for `O=C1CCc2cc(S(=O)(=O)Nc3cccc(Oc4ccccc4)c3)ccc2N1` here?
The Potency was “inactive”.

For `O=C(O)c1ccc(-c2ccc3ncnc(NCc4cccs4)c3c2)o1`, which Potency [1] is on record?
Its Potency is inconclusive [inhibitor, partial curve, poor fit].

Which Potency [1] does the source give for `O=C(O)c1ccc2c(c1)C(=O)N([C@@H](C(=O)O)C(c1ccccc1)c1ccccc1)C2=O` here?
Its Potency is “inactive”.

For `N[C@@H](Cc1ccc(OS(=O)(=O)c2cccnc2)cc1)C(=O)N1CCN(c2ccccc2)CC1`, which Potency [1] is on record?
Its Potency is “inactive”.

Which Potency [1] does the source give for `O=C(Nc1nc(-c2ccccc2)cs1)c1ccncc1NS(=O)(=O)c1ccc(F)cc1` here?
The Potency was inconclusive [inhibitor, partial curve].

For `CCC(=O)NC(C)c1cc(Cl)c2cccnc2c1O` (stereo not given), which Potency [1] is on record?
Its Potency is “inactive”.

Which Potency [1] does the source give for `O=C(Nc1ccc(Cl)c(Cl)c1)Nc1nnc(N2CCNCC2)s1` here?
Its Potency is inconclusive [inhibitor, partial curve, poor fit].

Which Potency [1] does the source give for `CN1CCN(c2ccc(NC(=O)c3cccs3)cn2)CC1` here?
The Potency was “inactive”.

Which Potency [1] does the source give for `CCCn1c(-c2ccc(F)cc2)nc2c(NC(C)CCCN(CC)CC)nc(C)nc21` (stereo not given) here?
The Potency was “inactive”.

With `Fc1cc(Nc2nc(-c3ccncc3)nc3ccccc23)ccc1N1CCNCC1` as the compound, how does the Potency [1] read?
Its Potency is inconclusive [inhibitor, partial curve, poor fit].

Which results are given for `CC(=O)Nc1sc2c(c1-c1nc3ccccc3s1)CCN(C(C)C)C2`?
Potency [2]: active: 12.6 µM; Potency [3]: active: 2.51 µM

With `C=C1C(=O)O[C@H]2[C@H]1[C@@H](OC(=O)C(C)CO)C[C@@]1(C)[C@H](O)CCC(=O)[C@H]21` (stereo not given in full) as the compound, how does the Potency [4] read?
The Potency was “inactive”.

And the Potency [5]?
The Potency was “inactive”.

For `CN(C)c1ccc(-c2cc[nH]c(=O)c2N)cc1`, which Potency [6] is on record?
Its Potency is inconclusive [inhibitor, single point].

What about the Potency [1] of the same compound?
Its Potency is inconclusive [inhibitor, partial curve, poor fit].

What does the source list for `Cc1ccc(S(=O)(=O)Nc2cnccc2C(=O)Nc2nc(-c3nc4ccccc4s3)cs2)cc1`?
Potency [7]: inactive; Potency [1]: inconclusive [inhibitor, full curve]

What does the source list for `CN(C)c1ncc2ncc(=O)n(CCc3ccccc3)c2n1`?
Potency [8]: inconclusive [activator, partial curve]; Potency [9]: inconclusive [inhibitor, partial curve]; activity change, negative = inhibition [10]: inconclusive: 1.33%; activity change, negative = inhibition [11]: inconclusive: -35.4% [inhibitor]; Potency [12]: active: 39.8 µM; Potency [13]: inconclusive [cytotoxic, single point]; Potency [14]: inconclusive [inhibitor, partial curve, poor fit]

Which results are given for `Cc1cccc(CNc2cc(-c3ccccc3CN(C)C)ncn2)c1`?
activity change, negative = inhibition [15]: inactive: 9.15%; activity change, negative = inhibition [16]: inconclusive: -41.8% [inhibitor]; Potency [8]: inconclusive [rising, partial curve]; Potency [10]: inactive; Potency [11]: inconclusive [inhibitor, partial curve, poor fit]; Potency [12]: inconclusive [inhibitor, single point]; max response [13]: inactive: -21.4%; Potency [14]: inconclusive [inhibitor, partial curve, poor fit]
